In a collection of fitness landscapes (doi:10.1126/science.1257360):
The list shows a part of the results.

B1: PhoQ; a variant is named by its letters at X, in order, P23837 (parent)
chain: MKKLLRLFFPLSLRVRFLLATAAVVLVLSLAYGMVALIGYSVSFDKTTFRLLRGESNLFYTLAKWENNKLHVELPENIDKQSPTMTLIYDENGQLLWAQRDVPWLMKMIQPDWLKSNGFHEIEADVNDTSLLLSGDHSIQQQLQEVREDDDDAEMTHSVAVNVYPATSRMPKLTIVVVDTIPVELKSSYMVWSWFIYVLSANLLLVIPLLWVAAWWSLRPIEALAKEVRELEEHNRELLNPATTRELTSLVRNLNRLLKSERERYDKYRTTLTDLTHSLKTPLXXLQXXLRSLRSEKMSVSDAEPVMLEQISRISQQIGYYLHRASMRGGTLLSRELHPVAPLLDNLTSALNKVYQRKGVNISLDISPEISFVGEQNDFVEVMGNVLDNACKYCLEFVEISARQTDEHLYIVVEDDGPGIPLSKREVIFDRGQRVDTLRPGQGVGLAVAREITEQYEGKIVAGESMLGGARMEVIFGRQHSAPKDE

Variants of: B1
Experiment: enrichment ratio after two sorts for PhoP signalling (ratio (wild type AVST 3.29)); higher = more functional
Settings: with PhoP (E. coli)
In the case of KSPI, the enrichment ratio is reported as no more than 0.25. With NTIH the enrichment ratio was no more than 0.25. Variant WHWN has an enrichment ratio of no more than 0.25. Variant NMFF has an enrichment ratio of no more than 0.25. In the case of ADFS, the enrichment ratio is reported as no more than 0.25. PHPE was tested, and the enrichment ratio was no more than 0.25. In the case of FWTK, the enrichment ratio is reported as no more than 0.25. PDWL showed an enrichment ratio of no more than 0.25. KCKF gave an enrichment ratio of no more than 0.25. Variant PKAY has an enrichment ratio of no more than 0.25. ASWY was tested, and the enrichment ratio was no more than 0.25. In the case of ERLL, the enrichment ratio is reported as no more than 0.25. KTAF gave an enrichment ratio of no more than 0.25. In the case of QCDG, the enrichment ratio is reported as no more than 0.25. INQT was tested, and the enrichment ratio was no more than 0.25. Variant IFNE has an enrichment ratio of no more than 0.25. PEYA gave an enrichment ratio of no more than 0.25. With LPSE the enrichment ratio was no more than 0.25. In the case of MEPA, the enrichment ratio is reported as no more than 0.25. In the case of ALLW, the enrichment ratio is reported as no more than 0.25. Work on GRFK yielded an enrichment ratio of no more than 0.25. IFSM was tested, and the enrichment ratio was no more than 0.25. With FEWT the enrichment ratio was no more than 0.25. In the case of YERL, the enrichment ratio is reported as no more than 0.25. Variant RYLE has an enrichment ratio of no more than 0.25. In the case of KPSY, the enrichment ratio is reported as no more than 0.25. Work on QTAW yielded an enrichment ratio of no more than 0.25. In the case of PYQI, the enrichment ratio is reported as no more than 0.25. GRKF showed an enrichment ratio of no more than 0.25. With SMNN the enrichment ratio was no more than 0.25. Variant FVTA has an enrichment ratio of no more than 0.25. In the case of DAPM, the enrichment ratio is reported as no more than 0.25. HYYV showed an enrichment ratio of no more than 0.25. QSQK gave an enrichment ratio of no more than 0.25. Variant GHIY has an enrichment ratio of no more than 0.25. In the case of FSTV, the enrichment ratio is reported as 2.68. QPLY showed an enrichment ratio of no more than 0.25. EFVV showed an enrichment ratio of no more than 0.25. In the case of IWVE, the enrichment ratio is reported as no more than 0.25. MPFQ showed an enrichment ratio of no more than 0.25. Work on KRCK yielded an enrichment ratio of no more than 0.25. Variant TWMI has an enrichment ratio of 0.253. For VDDP, the enrichment ratio was no more than 0.25. With HGFA the enrichment ratio was no more than 0.25. Work on MGIK yielded an enrichment ratio of no more than 0.25. With RNAL the enrichment ratio was no more than 0.25. In the case of NDLF, the enrichment ratio is reported as no more than 0.25. For MDAG, the enrichment ratio was no more than 0.25. DNVQ gave an enrichment ratio of no more than 0.25. WYIF showed an enrichment ratio of no more than 0.25. For WDIN, the enrichment ratio was no more than 0.25. VSYI gave an enrichment ratio of 0.294. Work on VCMR yielded an enrichment ratio of no more than 0.25. In the case of INKV, the enrichment ratio is reported as 1.45. HIFK was tested, and the enrichment ratio was no more than 0.25. TVIM was tested, and the enrichment ratio was no more than 0.25. RIWM gave an enrichment ratio of no more than 0.25. VPAM gave an enrichment ratio of no more than 0.25. In the case of HTSH, the enrichment ratio is reported as no more than 0.25. RPHW gave an enrichment ratio of no more than 0.25. Work on SLAH yielded an enrichment ratio of 6.33. Variant MNSK has an enrichment ratio of no more than 0.25. EFND showed an enrichment ratio of no more than 0.25. For RARY, the enrichment ratio was no more than 0.25. NVCH showed an enrichment ratio of no more than 0.25. Variant FWPK has an enrichment ratio of no more than 0.25. Work on TLMR yielded an enrichment ratio of no more than 0.25. WIMM gave an enrichment ratio of no more than 0.25. QFCC showed an enrichment ratio of no more than 0.25. With DRIA the enrichment ratio was no more than 0.25. VVDW showed an enrichment ratio of no more than 0.25. Variant SEMD has an enrichment ratio of 1.79. With EMRQ the enrichment ratio was no more than 0.25. NHQC was tested, and the enrichment ratio was no more than 0.25. QPWV was tested, and the enrichment ratio was no more than 0.25. With GWIG the enrichment ratio was no more than 0.25. Variant PGWS has an enrichment ratio of no more than 0.25. For SFDA, the enrichment ratio was no more than 0.25. Variant EFHY has an enrichment ratio of no more than 0.25. For RMWC, the enrichment ratio was no more than 0.25. IVWA showed an enrichment ratio of no more than 0.25. In the case of VEHT, the enrichment ratio is reported as no more than 0.25. With FNEW the enrichment ratio was no more than 0.25. With HMKD the enrichment ratio was no more than 0.25. VFPN gave an enrichment ratio of no more than 0.25. LEWA gave an enrichment ratio of no more than 0.25. With NLFN the enrichment ratio was no more than 0.25. Work on SYAG yielded an enrichment ratio of no more than 0.25. With ACIW the enrichment ratio was no more than 0.25. For YCSS, the enrichment ratio was 0.604. In the case of ANIC, the enrichment ratio is reported as 3.74. Variant LQAI has an enrichment ratio of no more than 0.25. Variant NALW has an enrichment ratio of no more than 0.25. For FKSN, the enrichment ratio was 0.534. With RQDY the enrichment ratio was no more than 0.25. Work on LPLC yielded an enrichment ratio of no more than 0.25. Variant VILK has an enrichment ratio of no more than 0.25. For NATA, the enrichment ratio was no more than 0.25. NGKC gave an enrichment ratio of no more than 0.25. AVSN was tested, and the enrichment ratio was 10.5. Work on EGRK yielded an enrichment ratio of no more than 0.25. Work on DCLN yielded an enrichment ratio of no more than 0.25. EQIF showed an enrichment ratio of no more than 0.25. ELSE showed an enrichment ratio of no more than 0.25. In the case of QNNY, the enrichment ratio is reported as no more than 0.25. FFRA was tested, and the enrichment ratio was no more than 0.25. For TDYA, the enrichment ratio was no more than 0.25. Work on LFAN yielded an enrichment ratio of no more than 0.25. RRWG showed an enrichment ratio of no more than 0.25. MSGG was tested, and the enrichment ratio was no more than 0.25. HYDR was tested, and the enrichment ratio was no more than 0.25. DRPE gave an enrichment ratio of no more than 0.25. HRMQ gave an enrichment ratio of no more than 0.25. NDGF showed an enrichment ratio of no more than 0.25. VTFW showed an enrichment ratio of no more than 0.25. ITHQ gave an enrichment ratio of no more than 0.25. For DKIP, the enrichment ratio was no more than 0.25. WQRM gave an enrichment ratio of no more than 0.25. With KCRT the enrichment ratio was no more than 0.25. RFKE showed an enrichment ratio of no more than 0.25. With HYRY the enrichment ratio was no more than 0.25. Work on GALA yielded an enrichment ratio of 2.12. PQVN was tested, and the enrichment ratio was no more than 0.25. In the case of VRQY, the enrichment ratio is reported as no more than 0.25. Variant DFMY has an enrichment ratio of no more than 0.25. TNCW showed an enrichment ratio of no more than 0.25. With HLEP the enrichment ratio was no more than 0.25. YYHL gave an enrichment ratio of no more than 0.25. With RKIT the enrichment ratio was no more than 0.25. Work on YAMF yielded an enrichment ratio of no more than 0.25. VDPV gave an enrichment ratio of no more than 0.25. WGKP was tested, and the enrichment ratio was no more than 0.25. In the case of GPVA, the enrichment ratio is reported as no more than 0.25. Work on YWMQ yielded an enrichment ratio of no more than 0.25. Work on HDMK yielded an enrichment ratio of no more than 0.25. In the case of WYSE, the enrichment ratio is reported as no more than 0.25. Work on LWMR yielded an enrichment ratio of no more than 0.25. In the case of NHYV, the enrichment ratio is reported as no more than 0.25. In the case of HIRR, the enrichment ratio is reported as no more than 0.25. PKKP showed an enrichment ratio of no more than 0.25. For LFFP, the enrichment ratio was no more than 0.25. DQMI gave an enrichment ratio of no more than 0.25. With LYSF the enrichment ratio was no more than 0.25. With LQRF the enrichment ratio was no more than 0.25. In the case of YSPS, the enrichment ratio is reported as no more than 0.25. In the case of PEAD, the enrichment ratio is reported as no more than 0.25. Variant LWMQ has an enrichment ratio of no more than 0.25. With LGAN the enrichment ratio was no more than 0.25. Work on GWMN yielded an enrichment ratio of no more than 0.25. For NNMI, the enrichment ratio was no more than 0.25. In the case of DSTP, the enrichment ratio is reported as no more than 0.25. LVPV was tested, and the enrichment ratio was no more than 0.25. Variant WFDW has an enrichment ratio of no more than 0.25.
